According to the supplement of paper PMC11060735:
“And” between values parts separate entries of the source, which are not always exact repeats. Equal entries are not always repeated. Structures can show the parent of a compound that is named as a salt. Out of some 1,800 compounds screened, about 50 (3%) showed activity. Some of the results follow.

Tested on: mouse p16Ink4a+/- lung fibroblasts (INKBRITE, bleomycin-injured)
Test: percentage of GFP+ (p16Ink4a+) fibroblasts among all cells in well; higher = less depletion of p16Ink4a+ cells, active = 20 or less
Conditions: 1 µM; 3 days
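Also: fibroblasts sorted 14 days after bleomycin, GFP+ and GFP− mixed 1:1 in 384-well plates (GFP− as in-well control), imaged after Hoechst and NucView530 staining, reference wells lacked compound.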

| Structure (SMILES) | percentage of GFP+ |
| --- | --- |
| CO[C@H]1/C=C\C=C(/C)C(=O)NC2=CC(=O)/C(=N\CCN(C)C)C(=C2O)C[C@@H](C)C[C@H](OC)[C@H](O)[C@@H](C)/C=C(\C)[C@@H]1OC(N)=O [Alvespimycin] | active: 12.4% |
| CC(=O)OCC(=O)[C@@]12N=C(C)O[C@@H]1C[C@H]1[C@@H]3CCC4=CC(=O)C=C[C@]4(C)[C@H]3[C@@H](O)C[C@@]12C [Deflazacort] | inactive: 31.1% |
| CC(COc1ccccc1)N(CCCl)Cc1ccccc1 (configuration not stated) [Phenoxybenzamine] | inactive: 37.6% |
| O=C(Nc1c(Cl)cncc1Cl)c1ccc(OC(F)F)c(OCC2CC2)c1 [Roflumilast] | inactive: 44.9% |
| c1cncc(CN2CCC(n3ncc4c(N5CCOCC5)nc(-c5ccc6[nH]ccc6c5)nc43)CC2)c1 | inactive: 28.6% |
| COc1cc2ncnc(Nc3ccc(F)c(Cl)c3)c2cc1OCCCN1CCOCC1 [Gefitinib] | inactive: 41.6% |
| OCc1ccc(O[C@@H]2O[C@H](CO)[C@@H](O)[C@H](O)[C@H]2O)cc1 [Gastrodin] | inactive: 36.5% |
| C=C1/C(=C\C=C2/CCC[C@]3(C)[C@@H]([C@H](C)CCCC(C)(C)O)CC[C@@H]23)C[C@@H](O)C[C@@H]1O [Calcitriol, DN-101] | inactive: 22.2% |
| CCOC(=O)N1c2ccc(C(F)(F)F)cc2[C@@H](N(Cc2cc(C(F)(F)F)cc(C(F)(F)F)c2)C(=O)OC)C[C@H]1CC [Torcetrapib] | inactive: 49.4% |
| CC[C@H]1OC(=O)[C@H](C)[C@@H](O[C@H]2C[C@@](C)(OC)[C@@H](O)[C@H](C)O2)[C@H](C)[C@@H](O[C@H]2O[C@H](C)C[C@H](N(C)C)[C@H]2O)[C@](C)(O)C[C@@H](C)C(=O)[C@H](C)[C@@H](O)[C@]1(C)O [Erythromycin] | inactive: 42% |
| O=C(Nc1cccnc1)N1CCC(Cc2cccc(Oc3ccc(C(F)(F)F)cn3)c2)CC1 | inactive: 52% |
| Oc1ccnc(S)n1 [2-thiouracil] | inactive: 48.2% |
| Cc1cc(Cl)ccc1OCCCC(=O)NO [Droxinostat] | inactive: 45.1% |
| CCC[C@@H]1C[C@@H](C(=O)N[C@H](C(C)Cl)[C@H]2O[C@H](SC)[C@H](O)[C@@H](O)[C@H]2O)N(C)C1 (some centres not stated) [Clindamycin HCl] | inactive: 58% and inactive: 34.2% |
| Cc1c(OCC(F)(F)F)ccnc1CS(=O)c1nc2ccccc2[nH]1 (configuration not stated) [Lansoprazole] | inactive: 44.2% |
| CCO/C(O)=C1\C(COCCN)=NC(C)=C(C(=O)OC)C1c1ccccc1Cl (configuration not stated) [Amlodipine] | inactive: 37.5% |
| CO[C@@H](C(=O)N1Cc2[nH]nc(NC(=O)c3ccc(N4CCN(C)CC4)cc3)c2C1)c1ccccc1 [Danusertib] | inactive: 39% |
| OC(CC1c2ccccc2-c2cncn21)C1CCCCC1 (configuration not stated) | inactive: 43% |
| C=CC(=O)Nc1cc2c(Nc3ccc(F)c(Cl)c3)ncnc2cc1OCCCN1CCOCC1 | inactive: 42.3% |
| CS(=O)(=O)c1ccc(-c2cnc(N)c(C(=O)Nc3ccccc3)n2)cc1 | inactive: 36.4% |
| COc1cc(C(=O)NC2CCCNC2)cc(OC)c1OC (configuration not stated) [Troxipide] | inactive: 47.9% |

| Structure (SMILES) | percentage of GFP+ |
| --- | --- |
| COc1cc2c(cc1OC)CN(CCc1ccc(NC(=O)c3cc(OC)c(OC)cc3NC(=O)c3cnc4ccccc4c3)cc1)CC2 [Tariquidar] | inactive: 45.1% |
| CCCCCCCCCCCCCCCC(=O)OC[C@H](O)[C@H]1OC(O)=C(O)C1=O [L-Ascorbyl 6-palmitate] | inactive: 47.7% |
| CCc1c(O)cc(O)c(C(=O)c2ccc(OCCN3CCOCC3)c(OC)c2)c1CC(=O)N(CCOC)CCOC | inactive: 48% |
| C[C@]12C=CC(=O)C=C1CC[C@@H]1[C@@H]2C(=O)C[C@@]2(C)[C@H]1CC[C@]2(O)C(=O)CO [Prednisone] | inactive: 36.4% |
| COc1ccc(C(=O)CC(=O)c2ccc(C(C)(C)C)cc2)cc1 [Avobenzone] | inactive: 43.5% |
| CN(C)CCOC(c1ccccc1)c1ccccc1 [Diphenhydramine] | inactive: 47.9% |
| N=c1ccn2c(n1)O[C@H]1[C@H](O)[C@@H](CO)O[C@H]12 [Cyclocytidine HCl] | inactive: 40.5% |
| Cn1c(=O)c2c(ncn2CC(O)CO)n(C)c1=O (configuration not stated) [Dyphylline] | inactive: 34.3% |
| CCCCc1nc(Cl)c(CO)n1Cc1ccc(-c2ccccc2-c2nn[nH]n2)cc1 [Losartan, Losartan Potassium] | inactive: 44.4% |
| CO[C@H]1O[C@@H]2O[C@]3(C)CC[C@H]4[C@H](C)CC[C@@H]([C@H]1C)[C@@]24OO3 [Artemether] | inactive: 39.1% |
| CN1C(C(=O)Nc2ccccn2)=C(O)c2ccccc2S1(=O)=O [Piroxicam] | inactive: 44.9% |
| O=C(/C=C/c1ccc(CN(CCO)CCc2c[nH]c3ccccc23)cc1)NO [Dacinostat] | active: 4.88% |
| CCN(CC)CCOC(=O)c1ccc(N)cc1 [Procaine, Novocain] | inactive: 44.3% |
| CCCCCCCCCCCCCCCC(=O)OC1C(SC)OC(C(NC(=O)C2CC(CCC)CN2C)C(C)Cl)C(O)C1O (configuration not stated) [Clindamycin palmitate HCl] | inactive: 45.8% |
| c1cc(-c2cnn3cc(-c4ccc(N5CCNCC5)cc4)cnc23)c2cccnc2c1 | inactive: 39.2% |
| Cc1c(Cn2c(C)nc3c(C(=O)O)cc(N4CCOCC4)cc32)cccc1C(F)(F)F | inactive: 52.7% |
| COc1ccc(-c2ccc3c(N4CCOCC4)nc(N4C[C@@H](C)O[C@@H](C)C4)nc3n2)cc1CO | inactive: 23.7% |
| CC(=O)N[C@@H](CS)C(=O)O [Acetylcysteine] | inactive: 39% |
| Nc1c(Br)cc(Br)cc1CN[C@H]1CC[C@H](O)CC1 [Ambroxol] | inactive: 44.2% |
| CNCCC(Oc1ccc(C(F)(F)F)cc1)c1ccccc1 (configuration not stated) [Fluoxetine Hydrochloride, Fluoxetine] | inactive: 29.3% |
| O=C(CCCCCCC(=O)Nc1ccccc1)NO [Vorinostat] | inactive: 41.4% |
